{"source": "paper PMC5394680", "about": "“The Cac2 subunit is essential for productive histone binding and nucleosome assembly in CAF-1” (Scientific Reports, 2017)", "binders": {"B1": {"name": "tCac1 (truncated Cac1, […]) (domain or fragment)", "chain": "not shown", "notes": "source: SF21 insect cells, co-expressed; purified within tCAF-1 complexes; in insect cell lysate for the His-pulldowns"}}, "key": {"[1]": {"target": "T1, Cac3 (small subunit of yeast CAF-1) (yeast, UniProt P13712)", "T1 construct": "Cac3, small subunit of yeast CAF-1; source: SF21 insect cells, purified (in isolation and in complexes)", "assay": "SEC; gel filtration of the purified tCAF-1 sub-complexes (Supplementary Figure 2a)", "conditions": "both partners purified"}, "[2]": {"target": "T2, Cac2 (middle subunit of yeast CAF-1), C-terminal His-tag (yeast, UniProt Q04199)", "T2 construct": "Cac2, middle subunit of yeast CAF-1, residues 1-449 (short C-terminal deletion to remove a region predicted to be disordered); The limits 1-449 are stated for all complexes; also called Cac2-His; source: SF21 insect cells; purified (in isolation and in complexes); in insect cell lysate for the His-pulldowns; not shown: His-tag, C-terminal, kept", "assay": "SEC; gel filtration of the purified tCAF-1 sub-complexes (Supplementary Figure 2a)", "conditions": "both partners purified"}}, "data": [{"binder": "B1", "values": [{"measurement": "binding result", "setting": "[1]", "result": "binds"}, {"measurement": "binding result", "setting": "[2]", "result": "binds"}]}]}
